Experimental data from publication PMC7472837 (Molecular cell, 2020).

B1: Recombinant BAXΔC ([…]) R134E (domain or fragment)
chain: not shown
B2: Recombinant BAX I133A (natural protein)
chain: not shown
B3: Recombinant BAX R134E/R145E (natural protein)
chain: not shown

Biological target: the molecule itself
Assay: SEC

Binding result, binds:
B1
B2
B3
